Where two headings read alike, the source gives them in different places.

Experiment [1] deals with Sp2CBMTD (printed Sp2CBM; two tandem CBMs of S. pneumoniae NanA sialidase, residues 121-305, SEQ ID NO: 4, fused to trimerisation domain of P. aeruginosa pseudaminidase, residues 333-438, SEQ ID NO: 6) (Streptococcus pneumoniae, UniProt P62575). The experiment can be described thus: Surface plasmon resonance (Biacore T-100): binding to immobilized multivalent, biotinylated α-2,3-sialyllactose-PAA. Conditions: mean ± s.d. of three replicates. For orientation: Surface plasmon resonance follows binding to a sensor surface in real time, without labels.

Experiment [2] concerns the target SpCBMTD (printed SpCBMT; CBM of S. pneumoniae NanA sialidase, residues 121-305, SEQ ID NO: 4, fused to trimerisation domain of P. aeruginosa pseudaminidase, residues 333-438, SEQ ID NO: 6) (Streptococcus pneumoniae, UniProt P62575). Described as above. The following applies: mean ± s.d. of three replicates.
The mark [3] stands for this setting: read-out: ka (association ('on') rate constant), 15 °C.
[4] abbreviates: read-out: ka (association ('on') rate constant), 25 °C.
Where [5] appears, read: read-out: ka (association ('on') rate constant), 37 °C.
Where [6] appears, read: read-out: kd (dissociation ('off') rate constant), 15 °C.
[7] abbreviates: read-out: kd (dissociation ('off') rate constant), 25 °C.
Setting [8] is: read-out: kd (dissociation ('off') rate constant), 37 °C.

On to `CC(=O)N[C@H]1[C@H]([C@H](O)[C@H](O)CO)O[C@@](O[C@H]2[C@@H](O)[C@@H](CO)O[C@@H](O[C@H]3[C@H](O)[C@@H](O)C(O)O[C@@H]3CO)[C@@H]2O)(C(=O)O)C[C@@H]1O` (stereo partly drawn) [α-2,3-sialyllactose], for which the kon amounted to 30000 M⁻¹ s⁻¹ in experiment [1] (setting [3]); 2.39e+06 ± 10000 M⁻¹ s⁻¹ in experiment [1] (setting [4]); 700000 ± 10000 M⁻¹ s⁻¹ in experiment [1] (setting [5]); 730000 ± 10000 M⁻¹ s⁻¹ in experiment [2] (setting [3]); 3.49e+06 ± 20000 M⁻¹ s⁻¹ in experiment [2] (setting [4]); 1.95e+06 ± 10000 M⁻¹ s⁻¹ in experiment [2] (setting [5]). Further, the koff in experiment [1] (setting [6]) is 0.00056 ± 4e-05 s⁻¹; in experiment [1] (setting [7]) it was 0.00135 ± 1e-05 s⁻¹; in experiment [1] (setting [8]), 0.00365 ± 4e-05 s⁻¹; in experiment [2] (setting [6]), 0.0003 ± 1e-05 s⁻¹; in experiment [2] (setting [7]) it was 0.00137 ± 1e-05 s⁻¹; in experiment [2] (setting [8]), 0.0009 ± 1e-05 s⁻¹.
